Results taken from the RNAGym collection of RNA variant scans (doi:10.7554/elife.90254).
The source gives no read counts; variants with many changes may rest on few reads.

B1: OR4K15 (parent)
chain: GUUAACGGUCAUAGGCCAUGGAAACUAGGAGCACCAUUUCGCUGCCAGUGAAGAAAUGAACAAAGAAAAUCUGGGCCAGGCAGGCAUCAAAAGAAAUAGUCUUGCGCUCAACCAGAAAGUCUGUAAUCAUUUUAAGGGUA

Variants of: B1
Test: self-cleavage, relative activity (ratio to wild type); higher = more cleavage; in vitro, sequencing; the parent is a self-cleaving ribozyme

| Variant | self-cleavage |
| --- | --- |
| A52G A82U A90G | 0.19 |
| A55G A82G U87A | 0.42 |
| A52C A86C U102C | 1.63 |
| A54G A98G U102C A117G | 1.71 |
| A51U U122C U139C | 0.3 |
| A52G A67U A68G A82G | 0.92 |
| A52G U103C U130C | 0.25 |
| A55G A96G U131C | 1.8 |
| A54G A62G U87C A118G | 1.15 |
| A54G A55G A64G U127C | 1.05 |
| A55G A110G A114U | 0.03 |
| A52G A62U A90C U108A A135G | 0 |
| A51U A62G A91G A94G | 0.68 |
| A54G A96G U102C A117G | 2.23 |
| A54G A66G A68G | 0.91 |
| A52G A59G A90G | 0.63 |
| A52G A78G U131C | 0.38 |
| A54G A63G C77U U108A | 0.03 |
| A55G A86U A89G A94G U103A U133C | 0.59 |
| A52G A63G U127C | 1.31 |
| G53A C76U G137U | 0.15 |
| A52G A78U U102C G123A | 1.4 |
| A52G U108C A135U | 0.01 |
| A54U A62G U87C U131C | 1.34 |

| Variant | self-cleavage |
| --- | --- |
| A51U U103A U122C | 0.43 |
| A52U A111G U120C | 0 |
| A55G A86G U127C | 0.12 |
| A52C U103C A114G | 0.07 |
| A54G A66G A89G | 1.39 |
| A54U A60G U139C | 0.8 |
| A54G A78C A91G U103C C105U A116G | 0.02 |
| A52G A63G U102A | 1.36 |
| A55G A78G C113G | 0.02 |
| A54G A64U U122G | 1.99 |
| A52G A67U U87C | 1.65 |
| A55G A94C A110G A116G | 0.03 |
| A52G A91G A92G | 1.97 |
| A54G A98C C109U A116G A117G U139C | 0.04 |
| A54G U70C A98G U108C | 0.01 |
| A52G U87C U100C A117G | 2.69 |
| A55G U70C A114U A118G | 0.02 |
| A52G A55U A69G A89U A114G A126G | 0.21 |
| A54G U103C A135G | 0.35 |
| A54U A63G A135C | 2.34 |
| A55G A64C A82G | 0.38 |
| A52G A78G C101U U108C | 0.04 |
| A52G A60U A68G | 0.69 |
| A51U A69U A82G | 1 |

| Variant | self-cleavage |
| --- | --- |
| A55G U70C U133C | 2.22 |
| A54G A78G U131C A140G | 0.15 |
| A54G A82G U100C | 1.23 |
| A52G A59U U102A | 0.72 |
| A54U A90G A114G | 0.25 |
| A55G A56G A126G U130C | 0.46 |
| A54G U108C U127C A129G U131C | 0 |
| A54G A68G A95G A129G | 1.45 |
| A55G A89G A116G U122A | 0.21 |
| A52G A64G U97A | 0.94 |
| A52G A67G U108C A111G | 0.01 |
| A52G A63G U132A | 0.96 |
| A54G A62G A94G | 1.39 |
| A52G C77U A90G A96G | 2.37 |
| A55G A78C U102C | 0.6 |
| A54G U72C A114G U131C | 1.88 |
| A54G A92G U133C U139C | 1.91 |
| A54G U87A U102A | 1.17 |
| A52C A54G A55G U57C A89G | 1.05 |
| A55G U87C U131C | 1.74 |
| A52G A59G A69G U122A U139C | 1.15 |
| A52G A60G U122G | 0.5 |
| A52G A59U A64G U72A A110G | 0.02 |
| A55G A63G C105G A118G | 0.01 |

| Variant | self-cleavage |
| --- | --- |
| A54G A98U A110G | 0.15 |
| A55G A67C A110G A114G A126G | 0.1 |
| A52U A92U A129G | 1.2 |
| A55G A78G U102C | 0.25 |
| A52G U100A A118G A129U | 0.14 |
| A54G A90U A116G | 0.29 |
| A54G A56G A89G | 2.25 |
| A51U A86G A94G | 1.71 |
| A52G U100C A111U C121U | 0.41 |
| A51U A69G U70C U132C A135G | 0.12 |
| A55G A69G U108C | 0.04 |
| G53A A69U U72C A118G U127C | 0.03 |
| A55G A110G A118U U127C | 0.01 |
| A52G A82G A111G A117G | 0.05 |
| A52U A67G U87C U131C U139C | 1.62 |
| A52G U102C U127C | 1.98 |
| A52G U57C A118G | 0.76 |
| A52U G74U A90G U103C | 0.04 |
| A54G A89U U108C | 0.01 |
| A52G U57C U108C U127C | 0.01 |
| A54G A90G A118G | 0.62 |
| A52U A59G A111G | 0.04 |
| G53U A126G A129G | 0.72 |
| A52C A56G G83A | 1.58 |

| Variant | self-cleavage |
| --- | --- |
| A52G U57G A66G | 1.35 |
| A52G A82U A89G A118G | 0.11 |
| A52G A54U U70A | 0.55 |
| A55G A69U A78U A92G G137C | 0.45 |
| A54G A55G A98G | 0.49 |
| G53U U87C U108C | 0.02 |
| A55G A114G U139C | 0.47 |
| A52G A114G A135G | 0.34 |
| A52G A64G G93A U127C | 0.67 |
| A52G A126G U130C | 1.62 |
| A51U A54U A90G A96G U130C | 0.99 |
| A51U U102C U120A | 1.67 |
| A51U U102C U120C | 2.11 |
| A55G A118G U131C | 0.83 |
| A52G A90G U127A | 0.56 |
| A55G A82G A86G A117G | 0.28 |
| A52G A55G U102A | 1.08 |
| A54G A78U U87C A117G | 0.09 |
| A52G U57A C76U | 0.05 |
| A52G C113U U132C | 0 |
| A52G A67G U122C | 0.74 |
| A52G U87C U100A U127A | 0.56 |
| A55G A59G A67G C76A G84C A111G A117G G136U | 0.01 |
| A54U A69U A96G | 2.01 |

| Variant | self-cleavage |
| --- | --- |
| A54G A69G G119A | 1.17 |
| A55G U70C U103C A114U | 0.02 |
| A52G A63U A95G | 2.33 |
| A54G A63G A82G A91C U102C U130C | 0.86 |
| A52C A64C A92G | 0.16 |
| A51U A68G A94U | 1.1 |
| A55G A60U A91G A98G | 0.32 |
| A51U A56G A64G A66G A117G | 1.97 |
| A54G U72C G83A A111C | 0.01 |
| A52G A64U A67G U72A A82U C128A | 0.15 |
| A52G A55G U87C A96G U120C U122C | 0.53 |
| A52G A94G A96U A111G A118U A135G | 0 |
| A54U A86G A89G A96G U122A | 2.16 |
| A52G A54G A90U | 1.65 |
| A54G A62U A96G A110G C121U | 0.22 |
| A52G A54G A62C U87C A96G U100C | 2.51 |
| A55G U120C U127A | 1.29 |
| A54G C85U U87C | 0.88 |
| A52G C71A A78U | 0.19 |
| A54G A68G A94G U132C | 2.26 |
| A52U A78G A117G | 0.51 |
| A52G A96G C113U | 0.04 |
| A54G A78G A111G | 0.04 |
| A54G A129U A135G | 0.33 |

| Variant | self-cleavage |
| --- | --- |
| A52G A59G C85U A98G | 0.45 |
| A54U U100C A129G | 2.53 |
| A51U A95U A140G | 2.88 |
| A51U A68U U72C | 0.18 |
| A55G G74A U132C U139C | 0.16 |
| A51U G74A A92G A98G | 0.04 |
| A55G U70C A96G | 1.48 |
| A55G A64G G83U A91G | 0.19 |
| A55G U57G A66G U97C U108A G138A | 0.01 |
| A55G A95U A111U | 0.04 |
| A55G A63C U130C | 1.33 |
| G53A A94G A118G U120C | 0.47 |
| A54U A66G U70C A118U U127A | 0.09 |
| A55G A68G U87C | 1.53 |
| A54G U97C U127C | 0.59 |
| A54G A135U A140G | 2.97 |
| A51U A94G A95G U108C G137A | 0.03 |
| G53U A60G A94G U97C A98G A140G | 1.07 |
| A54G A67C A68G A95G | 2.23 |
| A54G U57G A89U A117U | 0.65 |
| A54G A129G U131C | 0.09 |
| A51U A96G A111G U130C | 0.01 |
| G53C A111G U122C | 0.01 |
